Data from the RNAGym collection of RNA variant scans (doi:10.7554/elife.90254).
Read counts are not given, so values of variants with three or more changes are uncertain.

B1: LINE1-mini (parent)
chain: GGCAGAGCUCAACACAGCGUGGCAAAGUGGCUGUGGCUAGACUGCC

Variants of: B1
Test: self-cleavage, relative activity (ratio to wild type); higher = more cleavage; in vitro, sequencing; the parent is a self-cleaving ribozyme

**Q.** With GUCAGAGCUCAACACAGCGUGGCAACGUAGCUGUAGCUAGACUGCC as the variant, how does the self-cleavage read?
**A.** The self-cleavage was 0.05.

**Q.** For GGCAGAGCUCCACACAGCGUGGCAAAGUGGCUGUGGCUUGACUGCG, which self-cleavage is on record?
**A.** The self-cleavage was 0.01.

**Q.** Which self-cleavage does the source give for GGCAGUGCUCAACACAGCGUGGCAAAGUGGCUAUGGCUACACUGCC here?
**A.** Its self-cleavage is 0.05.

**Q.** For GGCAGAGCUCAACGCAGCGUGGGAAAGUGGCUAUGGCUAGACUGCC, which self-cleavage is on record?
**A.** Its self-cleavage is 0.07.

**Q.** With GGCAGAGCUCCCGACAGCGUGGCAAAGUGGGUGUGACUAGACUGGC as the variant, how does the self-cleavage read?
**A.** The self-cleavage was 0.

**Q.** For GGCAGAGCUCAACACAGGGUCUCAAAGUGGCUGUGGCUAGACUGCC, which self-cleavage is on record?
**A.** The self-cleavage was 0.11.

**Q.** For GGCGGAGCUCAACACAGCGUGGCAAAAUGGCUGAGGCUAGACUGCC, which self-cleavage is on record?
**A.** The self-cleavage was 0.16.

**Q.** Which self-cleavage does the source give for GGCAGAACUCAACACAGCGUGGCAAGGUGGCUGGGGCUAGUCUGCC here?
**A.** The self-cleavage was 0.45.

**Q.** Which self-cleavage does the source give for GGCAGAGCUCAACACAGCGUGGCAAAGUGGCUAUAGAUAAACUGCC here?
**A.** Its self-cleavage is 0.02.

**Q.** With GCCUGAGCUCAACACAGUGUGGCAAAGUGGCUGUGGCUAGACUGUC as the variant, how does the self-cleavage read?
**A.** The self-cleavage was 0.01.

**Q.** Which self-cleavage does the source give for GGCAGACCUCAACACAGCGUGGCGAAGUGGCCGCGGCUUGACUGCC here?
**A.** The self-cleavage was 0.06.

**Q.** With GGCAGAGCUCAACACAGCGUGGCAAAGUGGAUGUGGCUAACCUGCC as the variant, how does the self-cleavage read?
**A.** The self-cleavage was 0.05.

**Q.** Which self-cleavage does the source give for GGCAGAGCUCAAUAUAGCGUGUCCAAGUGGCUGUGGCUAGACUGCC here?
**A.** Its self-cleavage is 0.06.

**Q.** With GGCAGAGCUCACCACAGGGGGCCAAGGAGGCUGUGGCUAGACUGCC as the variant, how does the self-cleavage read?
**A.** The self-cleavage was 0.

**Q.** For GGCCGGGCUCAACACAGCGUGGCUAAGUGGCUAUGGCUAGACUGCC, which self-cleavage is on record?
**A.** Its self-cleavage is 0.31.

**Q.** With UGCAGAGCUCAACACAUCGUGGCAAAGUUGCUGUGGCUAGACUGCC as the variant, how does the self-cleavage read?
**A.** Its self-cleavage is 1.08.

**Q.** For GUCCGAGCUCAACACAGCGUGGCAAAGUGGCUGUGGCUAGCCUGCC, which self-cleavage is on record?
**A.** Its self-cleavage is 0.02.

**Q.** For GGCAAAGCUCAACACAGCGUGGCAAAGUCGCUGUGGCUAAAUUGCC, which self-cleavage is on record?
**A.** The self-cleavage was 0.07.

**Q.** For GGCAGAGGUCAACACAGCGUGGCAGAGUGGCUGUGCCUAUACUGCC, which self-cleavage is on record?
**A.** The self-cleavage was 0.04.

**Q.** With GGUAGAGCUCAGCACAGCGUGGCAAAGUGGCUGUGGCCAGACUGCC as the variant, how does the self-cleavage read?
**A.** The self-cleavage was 0.06.

**Q.** With AGCAGAGCUCAACACAUCGUGGCAAAGUGGCUGUGGCUAGACUGUC as the variant, how does the self-cleavage read?
**A.** Its self-cleavage is 0.06.

**Q.** With GGAAGAGCUCCACACAGCGUGGCAACGUGGCUGUGGCUAGACUGCC as the variant, how does the self-cleavage read?
**A.** The self-cleavage was 0.04.

**Q.** For GGCAGAGCUCGGUACAGUGUGGAAACGUGACUGUGGCUAGACUGCC, which self-cleavage is on record?
**A.** The self-cleavage was 0.

**Q.** With GGCAGAGCUCAACACAGUGGGACAAAGUGGCUGUGGCUAGACUGCC as the variant, how does the self-cleavage read?
**A.** Its self-cleavage is 0.74.

**Q.** With GGCAGAGCUCAACACAGCCUUGCAAAGUGGCUGUGGCUGGACUGCC as the variant, how does the self-cleavage read?
**A.** The self-cleavage was 0.06.

**Q.** With GGCAGAGCUCAACACAGCGUCGCAAAGCGGCUGUUGCUAGCCUGCC as the variant, how does the self-cleavage read?
**A.** Its self-cleavage is 0.04.

**Q.** Which self-cleavage does the source give for GGCAGAGCUCAACACAGCGUUGCAAAGUGGCUGAGGCUAGACAGCC here?
**A.** Its self-cleavage is 0.04.

**Q.** Which self-cleavage does the source give for GGCAUAACUCAACACAGCGUGGCAAAGUGGCUGUGGCUAGAUUGCC here?
**A.** Its self-cleavage is 0.77.

**Q.** For GGCAUAGCUCAACACAGCGUGACAAAGUAGCUGUGGCUAGACUGCC, which self-cleavage is on record?
**A.** The self-cleavage was 0.

**Q.** With GGCAGAGCCCAACACAGUGUGGCAAAGUGGCGAUGGCUUGACUGCC as the variant, how does the self-cleavage read?
**A.** Its self-cleavage is 0.01.

**Q.** Which self-cleavage does the source give for GGCAGAGCUCAACACAGCGUCGCAAAGUGGCCGUGGCUAGACUGCU here?
**A.** Its self-cleavage is 0.73.

**Q.** For GGCAGAGCACAACACAGUGUGGCAAAGUGGCUGUGGCAAGACUGCC, which self-cleavage is on record?
**A.** Its self-cleavage is 0.13.

**Q.** Which self-cleavage does the source give for GGCAGAGCUCGACAGAGCGUGGCAAAGUGGCUGUGGCUAGAUUGCC here?
**A.** Its self-cleavage is 0.01.

**Q.** With GGCAGCGCUAAACACAGCGUGCCAAAGUGGCUGUGGCUAGACUGCC as the variant, how does the self-cleavage read?
**A.** The self-cleavage was 0.

**Q.** Which self-cleavage does the source give for GCCAGAGCUCGACACAGCGUGGCAAAGUGGCUGUGGCUAGGCUCCC here?
**A.** Its self-cleavage is 0.03.

**Q.** Which self-cleavage does the source give for GCCUGAGCUAAACACAGCGUGGCAAAGGGGCUGUGGCUAGGCUCCA here?
**A.** The self-cleavage was 0.01.

**Q.** With GGCAGAGGUCAACACAGCAUGGCAAAGUGGUUGUGGCUACACUGCC as the variant, how does the self-cleavage read?
**A.** Its self-cleavage is 0.04.

**Q.** Which self-cleavage does the source give for GGCAGAGCUCAACACAGCGUGGCAAAGUGGCUGUCGCUUCACGGCC here?
**A.** Its self-cleavage is 0.04.

**Q.** For GGCAGGGUUCAACACAGCGGGGCACAGUGGCUGUGGCUAGCCUGCC, which self-cleavage is on record?
**A.** Its self-cleavage is 0.17.

**Q.** With GGCCGAGCUCAACAAAGCGUGGCAAAGUGGGUGUGGCGAGACUGCC as the variant, how does the self-cleavage read?
**A.** Its self-cleavage is 0.03.

**Q.** With GGCAGAGUUCAACACAGCGUUGCAAAGAGGCUGUGGCUAGACUGCC as the variant, how does the self-cleavage read?
**A.** Its self-cleavage is 0.03.

**Q.** With GGCAGAGCUCAACACAGCGUAGCAAAGAGAACGUGGCUUGACUGUC as the variant, how does the self-cleavage read?
**A.** The self-cleavage was 0.07.

**Q.** Which self-cleavage does the source give for GGGAGAGCGCAACACAGGGUGGCAAAGUGGCAGUGGCUAGACUGCC here?
**A.** The self-cleavage was 0.03.

**Q.** For AGCUAAGCUCAACAGGGCGUGGCAAAGUGGCUGUGGCUAGACUGCC, which self-cleavage is on record?
**A.** The self-cleavage was 0.04.

**Q.** For GGCAGAGCUCAAGACCGCGUGGCAAAGUGGCUUUGGCUAGACUGCC, which self-cleavage is on record?
**A.** The self-cleavage was 0.03.

**Q.** For GGCAGAGCUCAACACAGCGGGGCAAAGCGGCGGUGGCUAGACUGAC, which self-cleavage is on record?
**A.** Its self-cleavage is 0.03.

**Q.** For GGAAGAGCUCAACACAGCGUGGCAAAGUGGCUGUGGCUGGACCGCC, which self-cleavage is on record?
**A.** The self-cleavage was 0.09.

**Q.** With GGCAGAGCCCAACACAGCGUUGCAAAGUGGCUGGGGCUAGACUGCC as the variant, how does the self-cleavage read?
**A.** The self-cleavage was 0.18.

**Q.** With GGCAGAGCUCAACACAUGGUGACACACUGGCUGUGGUUAGACUGCC as the variant, how does the self-cleavage read?
**A.** The self-cleavage was 0.02.

**Q.** With GGCAGAGCUCAACACAGUAUGGCAACGUGGCUGAGGCUAGACUGCC as the variant, how does the self-cleavage read?
**A.** The self-cleavage was 0.1.

**Q.** For GGCAGAGCUCAACACGGCGUGGCAAUGUGUCUGAGGCUAGACUGCC, which self-cleavage is on record?
**A.** The self-cleavage was 0.09.

**Q.** For GGCAGAGCUCAACACAGCGUUGCUAAGUGGCUGUGGCUAGACUGUC, which self-cleavage is on record?
**A.** The self-cleavage was 0.35.

**Q.** With GGCAGAGUUCAAUACAGGGUGGCAGAGUGGCUGUGGCUAGACUGGC as the variant, how does the self-cleavage read?
**A.** Its self-cleavage is 0.1.

**Q.** For GGCAGACCUCAACACAGCGGGGCAAAGUGGCUGUGGUUAGACUGCC, which self-cleavage is on record?
**A.** The self-cleavage was 0.01.

**Q.** With GGCAGAGCUCAACACGGCUUGGCAAAGUGGUUGUGGCUAGACUACC as the variant, how does the self-cleavage read?
**A.** The self-cleavage was 0.03.

**Q.** With GGCAGAGCUCAACACUGCGUGGCAAACUUGAUGUGGCUAGACUGCC as the variant, how does the self-cleavage read?
**A.** The self-cleavage was 0.4.
